{
  "source": "PubChem BioAssay (NCI)",
  "note": "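In this assay, cells in 96-well plates receive the compound at five concentrations for 48 hours. Endpoints are linearly interpolated between the surrounding concentrations. GI50 marks 50% less growth. TGI: total growth inhibition.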 Peptide text beside a SMILES is read from it.",
  "data": [
    {"test_system": "NCI-H322M lung", "test": "NCI anticancer screen, dose series, 48 h", "units": {"TGI": "µM", "GI50": "µM"}, "values": [
      {"smiles": "Cc1cc(C)n(-c2nc3ccccc3c(=O)n2-c2ccccc2)n1", "TGI": "> 100"},
      {"smiles": "COC(=O)n1c(=O)n(-c2ccccc2)c(=O)n1C(=O)Nc1ccccc1", "TGI": "> 100"},
      {"smiles": "COc1c(NC(=O)CC(C)=O)[c]([Hg][O]C(C)=O)c(OC)c(Cl)[c]1[Hg][O]C(C)=O", "GI50": 33.3, "TGI": "> 100"},
      {"smiles": "CO[C@@H]1C=C[C@@]23c4cc5c(cc4C(O)N(CC2O)C3C1)OCO5", "note": "(some centres not stated)", "TGI": 37},
      {"smiles": "COC(=O)c1ccc2c(c1)C(=O)c1c-2n(CCCN)c(=O)c2cc([N+](=O)[O-])ccc12", "GI50": 0.795, "TGI": 2.92},
      {"smiles": "Nc1nc(Cl)cc(NCC2(CO)CCC(O)C2)n1", "note": "(configuration not stated)", "TGI": "> 100"},
      {"smiles": "O=C(O)C[O][Sb][O]CC(=O)O", "GI50": "> 100", "TGI": "> 100"},
      {"smiles": "CC(=O)NC(CS)C(=O)NC(CO)C(=O)NC(CO)C(=O)NC(Cc1c[nH]c2ccccc12)C(=O)N1CCCC1C(=O)NC(CO)C(=O)NC(Cc1c[nH]c2ccccc12)C(=O)NC(Cc1c[nH]cn1)C(=O)NC(CO)C(=O)NC(Cc1c[nH]c2ccccc12)C(=O)NCC(=O)NCC(=O)NC(CC(=O)O)C(=O)NC(CCC(N)=O)C(=O)NC(CCCCN)C(=O)NC(Cc1ccccc1)C(=O)NC(CCCNC(=N)N)C(=O)NC(CCCCN)C(N)=O", "note": "(configuration not stated) (Ac-CSSWPSWHSWGGDQKFRK-NH2; configuration not given here)", "TGI": "> 25"},
      {"smiles": "O=C1Oc2ccccc2C(=O)/C1=C/N1C(=O)N/C(=C\\c2cccc(O)c2)C1=O", "TGI": "> 100"},
      {"smiles": "NC(=S)NNC(=O)CCC(=O)Nc1ccc(Cl)cc1Cl", "TGI": "> 100"},
      {"smiles": "Cc1nc(-c2nc(C)c(C(=O)NN(C)C)s2)sc1C(=O)NN(C)C", "TGI": "> 100"},
      {"smiles": "COc1cc2ccnc3c2c(c1OC)-c1ccc(=O)ccc1-3", "GI50": 54.3, "TGI": "> 100"},
      {"smiles": "CC[N+]1(C)CCC(O)(c2ccccc2)C(C(=O)c2ccccc2)C1", "note": "(configuration not stated)", "TGI": 34.1},
      {"smiles": "CC1(c2nc3ccccc3[nH]2)CCC(C(N)=O)C(C)(C)O1", "note": "(configuration not stated)", "TGI": "> 100"},
      {"smiles": "CCOC(=O)C(=Cc1cc(OC)ccc1OC)C(=O)OCC", "TGI": 28.4},
      {"smiles": "O=C(NCCNCCNCCNC(=O)c1cc(-c2ccccc2)nc2ccccc12)c1cc(-c2ccccc2)nc2ccccc12", "TGI": 14.5},
      {"smiles": "OCc1ccc2c(c1)CC1(C2)Cc2cc3c(cc2C1)CCC3", "TGI": "> 100"},
      {"smiles": "O=P(O)(O)C1CCCC(P(=O)(O)O)N1", "note": "(configuration not stated)", "TGI": "> 100"},
      {"smiles": "O=C(NC(=S)NNC(=S)NNc1ccccc1)c1ccccc1", "GI50": 14.8, "TGI": "> 100"},
      {"smiles": "N#Cc1c(C#N)c(-c2ccco2)n(-c2ccccc2)c1N", "TGI": "> 100"},
      {"smiles": "O=C1OC(C2=CC(=O)c3ccccc3C2=O)C(Cl)=C1Cl", "note": "(configuration not stated)", "TGI": "> 100"},
      {"smiles": "CN1CCCC1=NC#N", "TGI": "> 100"},
      {"smiles": "O=C1[C@@H]2C3SC(c4ccccc43)[C@@H]2C(=O)N1c1ccccc1", "TGI": "> 100"},
      {"smiles": "COc1ccc(OC)c(-c2nc3ccccc3c(=O)[nH]2)c1", "TGI": "> 100"},
      {"smiles": "O=C(OCC1OC(OC(=O)c2cc(O)c(O)c(OC(=O)c3cc(O)c(O)c(O)c3)c2)C(OC(=O)c2cc(O)c(O)c(OC(=O)c3cc(O)c(O)c(O)c3)c2)C(OC(=O)c2cc(O)c(O)c(OC(=O)c3cc(O)c(O)c(O)c3)c2)C1OC(=O)c1cc(O)c(O)c(OC(=O)c2cc(O)c(O)c(O)c2)c1)c1cc(O)c(O)c(OC(=O)c2cc(O)c(O)c(O)c2)c1", "note": "(configuration not stated)", "GI50": 1.63, "TGI": 15.6},
      {"smiles": "COc1ccc(C2CC(c3ccc4ccccc4c3O)=NN2C(C)=O)cc1OC", "note": "(configuration not stated)", "TGI": "> 100"},
      {"smiles": "COc1ccc(CC2c3cc(OC)c(OC)c(OC)c3CC[N+]2(C)C)cc1Oc1ccc(CC2c3cc4c(c(OC)c3CCN2C)OCO4)cc1", "note": "(configuration not stated)", "TGI": "> 100"},
      {"smiles": "COc1ccc2oc(=O)c3c(c2c1C)OC(C)(C)C=C3", "TGI": "> 100"},
      {"smiles": "CCc1ccc(Nc2cc(=O)[nH]c(=S)n2C)cc1", "TGI": "> 100"},
      {"smiles": "CCN(CC)CCOC(=O)CCN1CC2CCC(CC2)C1", "TGI": "> 100"},
      {"smiles": "CO/N=C(/COc1c(-c2ccccc2)oc2ccccc2c1=O)c1ccc(OC)cc1", "GI50": "> 100", "TGI": "> 100"},
      {"smiles": "CCOC(CI)O[C@@H]1C=C[C@H](OC(C)=O)C1", "note": "(some centres not stated)", "TGI": "> 100"},
      {"smiles": "Cc1cc2c3ccccc3ccc2[n+]2ccccc12", "GI50": 3.38, "TGI": 32.3},
      {"smiles": "CCCCCCCCCC1C(C)c2c([nH]c3ccccc23)C2C(=O)N(c3ccccc3)C(=O)C21", "note": "(configuration not stated)", "TGI": 30.7},
      {"smiles": "NC1=CN(Cc2ccccc2)C2=N/C(=C\\c3ccccc3)C(=O)N12", "TGI": "> 100"},
      {"smiles": "CC(=O)OC1C/C(C)=C/CCC(C)/C=C/C2(C)CCC(C(C)(C)O)C12", "note": "(configuration not stated)", "TGI": "> 100"},
      {"smiles": "O=C(NNc1ccccc1)OCc1ccccc1", "GI50": 19.3, "TGI": "> 100"},
      {"smiles": "COc1c(Cl)cc(S(=O)O)cc1Cl", "TGI": "> 100"},
      {"smiles": "Cc1cc(N(CCCCl)CCCCl)ccc1C=Nc1cccc(Cl)c1", "TGI": 60.4},
      {"smiles": "N#Cc1c(N)c2c(c(-c3ccccc3)c1-c1ccccc1)C(=O)N(NC(=O)c1ccccc1)C2=O", "TGI": "> 100"},
      {"smiles": "COc1ccc2oc(=O)c(CC=C(C)C)c(O)c2c1C", "TGI": "> 100"},
      {"smiles": "CCC1(C(=O)OC)CCc2c(OC)ccc(OC)c2C1=O", "note": "(configuration not stated)", "TGI": "> 100"},
      {"smiles": "CCC[CH2][Ge]([CH2]CCC)([CH2]CCC)[O]C(=O)C(OC)c1ccccc1", "note": "(configuration not stated)", "GI50": 53, "TGI": "> 100"},
      {"smiles": "CN(C)c1nc(=NCc2cccs2)ss1", "TGI": "> 10"},
      {"smiles": "Nc1ccc2c(c1)CC1c3ccccc3C(C2)c2ccccc21", "TGI": "> 100"},
      {"smiles": "CCC[CH2][Sn]([CH2]CCC)([O]C(=O)c1cc(OC)c(OC)cc1OC)[O]C(=O)c1cc(OC)c(OC)cc1OC", "GI50": 1.74, "TGI": 4.17},
      {"smiles": "O=C(O)c1ccc(NCc2nc3cc4ccccc4cc3[nH]2)cc1", "TGI": "> 100"},
      {"smiles": "C[n+]1ccc(-c2cc[n+](C)cc2)cc1", "TGI": "> 100"},
      {"smiles": "Cc1ccc(C(CC(=O)C(C)(C)CN2CCCCC2)SCCS(=O)(=O)O)cc1", "note": "(configuration not stated)", "TGI": 84.8},
      {"smiles": "CC(=O)OCC1OC(n2c(=O)n(-c3ccccc3)c(=O)c3cc(Br)cc(Br)c32)C(OC(C)=O)C(OC(C)=O)C1OC(C)=O", "note": "(configuration not stated)", "TGI": "> 100"},
      {"smiles": "Nc1ccc2cc3[nH]c4cc(N)ccc4c3nc2c1", "TGI": 2.51},
      {"smiles": "CC(C)(C)OC(=O)NC(Cc1ccc(OCc2ccccc2)cn1)C(=O)NCc1ccccc1", "note": "(configuration not stated)", "TGI": "> 100"},
      {"smiles": "Cc1cc(=O)oc2c1cc(OCC(=O)OCCN1CCCCC1)c1occ(C)c12", "TGI": "> 100"},
      {"smiles": "N#Cc1cccc(/C=C(/C(=O)c2ccccc2)c2ccccc2)c1", "GI50": 9.62, "TGI": 24.7},
      {"smiles": "S=C=NCc1ccccc1", "TGI": 30}
    ]}
  ]
}
